From paper PMC7904913
These are yes or no findings as the source states them, for the method shown. For some assays here: Binding seen in cells or lysates may run through a third protein. Some results given as binding are weak or reduced against the parent protein; the word gives no strength. For some assays here: Sequences can lack the tags named with a protein. One block for each binder: values may come before it.

Chains of the proteins cited; added tags and fusions are not shown. Residues count along the entry.
UniProt Q9NZQ7, residues 19-290: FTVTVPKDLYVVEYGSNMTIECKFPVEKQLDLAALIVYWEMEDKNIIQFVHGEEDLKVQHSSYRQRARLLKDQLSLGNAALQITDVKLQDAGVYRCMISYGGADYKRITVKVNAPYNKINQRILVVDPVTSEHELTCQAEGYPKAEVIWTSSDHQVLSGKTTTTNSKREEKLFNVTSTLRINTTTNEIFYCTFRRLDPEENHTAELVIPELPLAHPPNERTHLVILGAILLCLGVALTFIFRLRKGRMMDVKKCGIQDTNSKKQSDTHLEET

What was measured:
[1] = molecular target: Programmed death ligand-1 (PD-L1), endogenous in RKO cells (human (endogenous in RKO)) (UniProt Q9NZQ7); experiment: co-IP; nuclear fraction of wild-type RKO cells; anti-PD-L1 antibody
[2] = molecular target: Programmed death ligand-1 (PD-L1), endogenous in RKO cells (human (endogenous in RKO)) (UniProt Q9NZQ7); experiment: co-IP; total lysates from RKO cells; antibodies against PD-L1, Scc1, SA1 or SMC1; endogenous proteins
[3] = molecular target: Programmed death ligand-1 (PD-L1), endogenous in RKO cells (human (endogenous in RKO)) (UniProt Q9NZQ7); experiment: condition: only in the cytosol fraction (cytoplasmic and membrane proteins); co-IP; cytosol fraction (containing cytoplasmic and membrane proteins) of wild-type RKO cells; anti-PD-L1 antibody
[4] = molecular target: PD-L1, wild type, expressed in HEK293T cells (UniProt Q9NZQ7); experiment: co-IP; HEK293T cells transfected with the indicated plasmids (PD-L1 and its deletion mutants)
GST-PD-L1 = GST-PD-L1 (UniProt Q9NZQ7); experiment: pull-down; in vitro; purified GST-PD-L1 with His-Scc1, His-SA1 and His-SMC1; Western analysis with anti-His; both purified

B1: cohesin subunit SA1 (Scc3/SA1), endogenous in RKO cells (protein, UniProt Q8WVM7 1-1258)
chain: MITSELPVLQDSTNETTAHSDAGSELEETEVKGKRKRGRPGRPPSTNKKPRKSPGEKSRIEAGIRGAGRGRANGHPQQNGEGEPVTLFEVVKLGKSAMQSVVDDWIESYKQDRDIALLDLINFFIQCSGCRGTVRIEMFRNMQNAEIIRKMTEEFDEDSGDYPLTMPGPQWKKFRSNFCEFIGVLIRQCQYSIIYDEYMMDTVISLLTGLSDSQVRAFRHTSTLAAMKLMTALVNVALNLSIHQDNTQRQYEAERNKMIGKRANERLELLLQKRKELQENQDEIENMMNSIFKGIFVHRYRDAIAEIRAICIEEIGVWMKMYSDAFLNDSYLKYVGWTLHDRQGEVRLKCLKALQSLYTNRELFPKLELFTNRFKDRIVSMTLDKEYDVAVEAIRLVTLILHGSEEALSNEDCENVYHLVYSAHRPVAVAAGEFLHKKLFSRHDPQAEEALAKRRGRNSPNGNLIRMLVLFFLESELHEHAAYLVDSLWESSQELLKDWECMTELLLEEPVQGEEAMSDRQESALIELMVCTIRQAAEAHPPVGRGTGKRVLTAKERKTQIDDRNKLTEHFIITLPMLLSKYSADAEKVANLLQIPQYFDLEIYSTGRMEKHLDALLKQIKFVVEKHVESDVLEACSKTYSILCSEEYTIQNRVDIARSQLIDEFVDRFNHSVEDLLQEGEEADDDDIYNVLSTLKRLTSFHNAHDLTKWDLFGNCYRLLKTGIEHGAMPEQIVVQALQCSHYSILWQLVKITDGSPSKEDLLVLRKTVKSFLAVCQQCLSNVNTPVKEQAFMLLCDLLMIFSHQLMTGGREGLQPLVFNPDTGLQSELLSFVMDHVFIDQDEENQSMEGDEEDEANKIEALHKRRNLLAAFSKLIIYDIVDMHAAADIFKHYMKYYNDYGDIIKETLSKTRQIDKIQCAKTLILSLQQLFNELVQEQGPNLDRTSAHVSGIKELARRFALTFGLDQIKTREAVATLHKDGIEFAFKYQNQKGQEYPPPNLAFLEVLSEFSSKLLRQDKKTVHSYLEKFLTEQMMERREDVWLPLISYRNSLVTGGEDDRMSVNSGSSSSKTSSVRNKKGRPPLHKKRVEDESLDNTWLNRTDTMIQTPGPLPAPQLTSTVLRENSRPMGDQIQEPESEHGSEPDFLHNPQMQISWLGQPKLEDLNRKDRTGMNYMKVRTGVRHAVRGLMEEDAEPIFEDVMMSSRSQLEDMNEEFEDTMVIDLPPSRNRRERAELRPDFFDSAAIIEDDSGFGMPMF
- binding [1]: binds
- binding [2]: binds
- binding [3]: no binding

- binding [4]: binds
B2: SA1 in HEK293T cells (protein, UniProt Q8WVM7 1-1258)
chain: B1 chain

- binding (GST-PD-L1): binds
B3: His-SA1 (protein, UniProt Q8WVM7 1-1258)
chain: B1 chain
